PMC6381103
Where a chain is given by its changes, count along the chain named. No constants are given. Whether binding was seen depends on the method and setting. In cells and extracts the contact can be indirect. Some results given as binding are weak or reduced against the parent protein; the word gives no strength. For part of these data: Sequences can lack the tags named with a protein.

The chains behind the UniProt entries cited, without tags or fusion partners.
UniProt Q969H0: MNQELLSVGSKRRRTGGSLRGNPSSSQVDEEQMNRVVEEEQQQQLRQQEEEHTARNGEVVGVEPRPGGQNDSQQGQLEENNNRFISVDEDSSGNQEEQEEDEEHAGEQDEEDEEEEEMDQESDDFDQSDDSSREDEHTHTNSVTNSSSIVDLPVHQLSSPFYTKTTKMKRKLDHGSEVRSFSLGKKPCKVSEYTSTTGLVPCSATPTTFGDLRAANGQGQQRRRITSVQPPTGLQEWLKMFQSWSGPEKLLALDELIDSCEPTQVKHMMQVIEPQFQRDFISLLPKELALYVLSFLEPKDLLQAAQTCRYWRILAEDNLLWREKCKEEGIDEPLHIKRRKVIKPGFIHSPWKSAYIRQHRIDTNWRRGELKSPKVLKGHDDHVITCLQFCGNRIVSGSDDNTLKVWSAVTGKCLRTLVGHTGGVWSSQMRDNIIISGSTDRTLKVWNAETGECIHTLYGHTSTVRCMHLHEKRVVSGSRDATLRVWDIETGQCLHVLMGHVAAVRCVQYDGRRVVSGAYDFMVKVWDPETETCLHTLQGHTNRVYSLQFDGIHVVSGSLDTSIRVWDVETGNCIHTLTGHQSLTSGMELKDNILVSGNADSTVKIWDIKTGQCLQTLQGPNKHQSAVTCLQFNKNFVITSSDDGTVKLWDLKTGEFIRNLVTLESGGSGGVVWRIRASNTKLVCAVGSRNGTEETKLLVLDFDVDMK

Assays:
[1] = biological target: T1, endogenous XBP1s, induced by tunicamycin (human (endogenous in HEK293FT)) (UniProt P17861); experiment: co-IP; endogenous proteins; HEK293FT cells treated with 1 μg/ml tunicamycin for 24 h; immunoprecipitation with anti-XBP1
T1 sequence: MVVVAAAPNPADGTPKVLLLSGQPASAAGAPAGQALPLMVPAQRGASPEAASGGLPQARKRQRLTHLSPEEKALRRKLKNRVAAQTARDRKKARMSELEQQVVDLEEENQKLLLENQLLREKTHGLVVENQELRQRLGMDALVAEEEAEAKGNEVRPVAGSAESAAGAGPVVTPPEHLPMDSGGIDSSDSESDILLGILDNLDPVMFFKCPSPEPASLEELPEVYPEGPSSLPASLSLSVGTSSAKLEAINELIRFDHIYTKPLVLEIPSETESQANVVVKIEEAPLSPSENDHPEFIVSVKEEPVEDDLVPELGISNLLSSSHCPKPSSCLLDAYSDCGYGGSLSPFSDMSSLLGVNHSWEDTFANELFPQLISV

[2] = biological target: T2, XBP1s (spliced, active form of X-box binding protein 1), transiently expressed (UniProt P17861); experiment: co-IP; HEK293FT cells co-transfected with XBP1s and FLAG-Fbw7; immunoprecipitation with anti-XBP1; blot with anti-XBP1 and anti-FLAG
T2 sequence: T1 sequence

[3] = biological target: FLAG-Fbw7, transiently expressed (UniProt Q969H0); experiment: condition: only lysates treated with calf intestinal alkaline phosphatase (CIP); co-IP; lysates with transiently expressed XBP1s and/or FLAG-Fbw7 treated with calf intestinal alkaline phosphatase (CIP; 80 μM, 30 min, 37 °C), then co-immunoprecipitation
[4] = biological target: FLAG-Fbw7, transiently expressed (UniProt Q969H0); experiment: co-IP; HEK293FT cells co-transfected with XBP1s (wild type or mutant) and FLAG-Fbw7; lysate incubated with anti-FLAG-coated magnetic beads at 4 °C for 2 h; blot with anti-XBP1 and anti-FLAG
[5] = biological target: FLAG-Fbw7, transiently expressed (UniProt Q969H0); experiment: co-IP; lysates with transiently expressed XBP1 and/or FLAG-Fbw7 treated with λ-phosphatase, then co-immunoprecipitation

endogenous Fbw7 (from UniProt Q969H0 1-707)
binding [1]: binds

FLAG-Fbw7, transiently expressed (from UniProt Q969H0 1-707)
binding [2]: binds

B1: XBP1s (spliced, active form of X-box binding protein 1), transiently expressed (protein, UniProt P17861-2 1-376)
chain: T1 sequence
binding [3]: no binding
binding [4]: binds
binding [5]: no binding (condition: lysates treated with λ-phosphatase)

B2: XBP1s S212/217 A mutant, transiently expressed (protein, UniProt P17861-2 1-376)
chain: T1 sequence with S212A, S217A
binding [4]: binds
